Data reported in the supplement of paper PMC12423691.
The list shows a part of the results. Binding of human transcription factors and regulators to the viral nucleoprotein by AlphaScreen, crude cell-free proteins, amounts not normalised, one pass. Fold of the Venus control; higher = more signal. No active / inactive call. Single-pass screen; sequences are the whole Swiss-Prot entries looked up by name.

B1: S100A8, P05109 (protein)
chain: MLTELEKALNSIIDVYHKYSLIKGNFHAVYRDDLKKLLETECPQYIRKKGADVWFKELDINTDGAVNFQEFLILVIKMGVAAHKKSHEESHKE
B2: BARHL2, Q9NY43 (protein)
chain: MTMEGASGSSFGIDTILSSASSGSPGMMNGDFRPLGEARTADFRSQATPSPCSEIDTVGTAPSSPISVTMEPPEPHLVADATQHHHHLHHSQQPPPPAAAPTQSLQPLPQQQQPLPPQQPPPPPPQQLGSAASAPRTSTSSFLIKDILGDSKPLAACAPYSTSVSSPHHTPKQESNAVHESFRPKLEQEDSKTKLDKREDSQSDIKCHGTKEEGDREITSSRESPPVRAKKPRKARTAFSDHQLNQLERSFERQKYLSVQDRMDLAAALNLTDTQVKTWYQNRRTKWKRQTAVGLELLAEAGNYSALQRMFPSPYFYHPSLLGSMDSTTAAAAAAAMYSSMYRTPPAPHPQLQRPLVPRVLIHGLGPGGQPALNPLSSPIPGTPHPR
B3: HHEX, Q03014 (protein)
chain: MQYPHPGPAAGAVGVPLYAPTPLLQPAHPTPFYIEDILGRGPAAPTPAPTLPSPNSSFTSLVSPYRTPVYEPTPIHPAFSHHSAAALAAAYGPGGFGGPLYPFPRTVNDYTHALLRHDPLGKPLLWSPFLQRPLHKRKGGQVRFSNDQTIELEKKFETQKYLSPPERKRLAKMLQLSERQVKTWFQNRRAKWRRLKQENPQSNKKEELESLDSSCDQRQDLPSEQNKGASLDSSQCSPSPASQEDLESEISEDSDQEVDIEGDKSYFNAG
B4: RARG, P13631 (protein)
chain: MATNKERLFAAGALGPGSGYPGAGFPFAFPGALRGSPPFEMLSPSFRGLGQPDLPKEMASLSVETQSTSSEEMVPSSPSPPPPPRVYKPCFVCNDKSSGYHYGVSSCEGCKGFFRRSIQKNMVYTCHRDKNCIINKVTRNRCQYCRLQKCFEVGMSKEAVRNDRNKKKKEVKEEGSPDSYELSPQLEELITKVSKAHQETFPSLCQLGKYTTNSSADHRVQLDLGLWDKFSELATKCIIKIVEFAKRLPGFTGLSIADQITLLKAACLDILMLRICTRYTPEQDTMTFSDGLTLNRTQMHNAGFGPLTDLVFAFAGQLLPLEMDDTETGLLSAICLICGDRMDLEEPEKVDKLQEPLLEALRLYARRRRPSQPYMFPRMLMKITDLRGISTKGAERAITLKMEIPGPMPPLIREMLENPEMFEDDSSQPGPHPNASSEDEVPGGQGKGGLKSPA
B5: EBF1, Q9UH73 (protein)
chain: MFGIQESIQRSGSSMKEEPLGSGMNAVRTWMQGAGVLDANTAAQSGVGLARAHFEKQPPSNLRKSNFFHFVLALYDRQGQPVEIERTAFVGFVEKEKEANSEKTNNGIHYRLQLLYSNGIRTEQDFYVRLIDSMTKQAIVYEGQDKNPEMCRVLLTHEIMCSRCCDKKSCGNRNETPSDPVIIDRFFLKFFLKCNQNCLKNAGNPRDMRRFQVVVSTTVNVDGHVLAVSDNMFVHNNSKHGRRARRLDPSEGTPSYLEHATPCIKAISPSEGWTTGGATVIIIGDNFFDGLQVIFGTMLVWSELITPHAIRVQTPPRHIPGVVEVTLSYKSKQFCKGTPGRFIYTALNEPTIDYGFQRLQKVIPRHPGDPERLPKEVILKRAADLVEALYGMPHNNQEIILKRAADIAEALYSVPRNHNQLPALANTSVHAGMMGVNSFSGQLAVNVSEASQATNQGFTRNSSSVSPHGYVPSTTPQQTNYNSVTTSMNGYGSAAMSNLGGSPTFLNGSAANSPYAIVPSSPTMASSTSLPSNCSSSSGIFSFSPANMVSAVKQKSAFAPVVRPQTSPPPTCTSTNGNSLQAISGMIVPPM
B6: RFXANK, O14593 (protein)
chain: MELTQPAEDLIQTQQTPASELGDPEDPGEEAADGSDTVVLSLFPCTPEPVNPEPDASVSSPQAGSSLKHSTTLTNRQRGNEVSALPATLDSLSIHQLAAQGELDQLKEHLRKGDNLVNKPDERGFTPLIWASAFGEIETVRFLLEWGADPHILAKERESALSLASTGGYTDIVGLLLERDVDINIYDWNGGTPLLYAVRGNHVKCVEALLARGADLTTEADSGYTPMDLAVALGYRKVQQVIENHILKLFQSNLVPADPE
B7: ZNF655, Q8N720 (protein)
chain: MEEIPAQEAAGSPRVQFQSLETQSECLSPEPQFVQDTDMEQGLTGDGETREENKLLIPKQKISEEVHSYKVRVGRLKHDITQVPETREVYKSEDRLERLQEILRKFLYLEREFRQITISKETFTSEKNNECHEPEKSFSLDSTIDADQRVLRIQNTDDNDKYDMSFNQNSASGKHEHLNLTEDFQSSECKESLMDLSHLNKWESIPNTEKSYKCDVCGKIFHQSSALTRHQRIHTREKPYKCKECEKSFSQSSSLSRHKRIHTREKPYKCEASDKSCEASDKSCSPSSGIIQHKKIHTRAKSYKCSSCERVFSRSVHLTQHQKIHKEMPCKCTVCGSDFCHTSYLLEHQRVHHEEKAYEYDEYGLAYIKQQGIHFREKPYTCSECGKDFRLNSHLIQHQRIHTGEKAHECNECGKAFSQTSCLIQHHKMHRKEKSYECNEYEGSFSHSSDLILQQEVLTRQKAFDCDVWEKNSSQRAHLVQHQSIHTKENS
B8: MTA1, Q13330 (protein)
chain: MAANMYRVGDYVYFENSSSNPYLIRRIEELNKTANGNVEAKVVCFYRRRDISSTLIALADKHATLSVCYKAGPGADNGEEGEIEEEMENPEMVDLPEKLKHQLRHRELFLSRQLESLPATHIRGKCSVTLLNETESLKSYLEREDFFFYSLVYDPQQKTLLADKGEIRVGNRYQADITDLLKEGEEDGRDQSRLETQVWEAHNPLTDKQIDQFLVVARSVGTFARALDCSSSVRQPSLHMSAAAASRDITLFHAMDTLHKNIYDISKAISALVPQGGPVLCRDEMEEWSASEANLFEEALEKYGKDFTDIQQDFLPWKSLTSIIEYYYMWKTTDRYVQQKRLKAAEAESKLKQVYIPNYNKPNPNQISVNNVKAGVVNGTGAPGQSPGAGRACESCYTTQSYQWYSWGPPNMQCRLCASCWTYWKKYGGLKMPTRLDGERPGPNRSNMSPHGLPARSSGSPKFAMKTRQAFYLHTTKLTRIARRLCREILRPWHAARHPYLPINSAAIKAECTARLPEASQSPLVLKQAVRKPLEAVLRYLETHPRPPKPDPVKSVSSVLSSLTPAKVAPVINNGSPTILGKRSYEQHNGVDGNMKKRLLMPSRGLANHGQARHMGPSRNLLLNGKSYPTKVRLIRGGSLPPVKRRRMNWIDAPDDVFYMATEETRKIRKLLSSSETKRAARRPYKPIALRQSQALPPRPPPPAPVNDEPIVIED
B9: NFYC, Q13952 (protein)
chain: MSTEGGFGGTSSSDAQQSLQSFWPRVMEEIRNLTVKDFRVQELPLARIKKIMKLDEDVKMISAEAPVLFAKAAQIFITELTLRAWIHTEDNKRRTLQRNDIAMAITKFDQFDFLIDIVPRDELKPPKRQEEVRQSVTPAEPVQYYFTLAQQPTAVQVQGQQQGQQTTSSTTTIQPGQIIIAQPQQGQTTPVTMQVGEGQQVQIVQAQPQGQAQQAQSGTGQTMQVMQQIITNTGEIQQIPVQLNAGQLQYIRLAQPVSGTQVVQGQIQTLATNAQQGQRNASQGKPRRCLKETLQITQTEVQQGQQQFSQFTDGQRNSVQQARVSELTGEAEPREVKATGNSTPCTSSLPTTHPPSHRAGASCVCCSQPQQSSTSPPPSDALQWVVVEVSGTPNQLETHRELHAPLPGMTSLSPLHPSQQLYQIQQVTMPAGQDLAQPMFIQSANQPSDGQAPQVTGD
B10: TCF7L2, Q9NQB0 (protein)
chain: MPQLNGGGGDDLGANDELISFKDEGEQEEKSSENSSAERDLADVKSSLVNESETNQNSSSDSEAERRPPPRSESFRDKSRESLEEAAKRQDGGLFKGPPYPGYPFIMIPDLTSPYLPNGSLSPTARTLHFQSGSTHYSAYKTIEHQIAVQYLQMKWPLLDVQAGSLQSRQALKDARSPSPAHIVSNKVPVVQHPHHVHPLTPLITYSNEHFTPGNPPPHLPADVDPKTGIPRPPHPPDISPYYPLSPGTVGQIPHPLGWLVPQQGQPVYPITTGGFRHPYPTALTVNASMSRFPPHMVPPHHTLHTTGIPHPAIVTPTVKQESSQSDVGSLHSSKHQDSKKEEEKKKPHIKKPLNAFMLYMKEMRAKVVAECTLKESAAINQILGRRWHALSREEQAKYYELARKERQLHMQLYPGWSARDNYGKKKKRKRDKQPGETNEHSECFLNPCLSLPPITDLSAPKKCRARFGLDQQNNWCGPCRRKKKCVRYIQGEGSCLSPPSSDGSLLDSPPPSPNLLGSPPRDAKSQTEQTQPLSLSLKPDPLAHLSMMPPPPALLLAEATHKASALCPNGALDLPPAALQPAAPSSSIAQPSTSSLHSHSSLAGTQPQPLSLVTKSLE
B11: MESP1, Q9BRJ9 (protein)
chain: MAQPLCPPLSESWMLSAAWGPTRRPPPSDKDCGRSLVSSPDSWGSTPADSPVASPARPGTLRDPRAPSVGRRGARSSRLGSGQRQSASEREKLRMRTLARALHELRRFLPPSVAPAGQSLTKIETLRLAIRYIGHLSAVLGLSEESLQRRCRQRGDAGSPRGCPLCPDDCPAQMQTRTQAEGQGQGRGLGLVSAVRAGASWGSPPACPGARAAPEPRDPPALFAEAACPEGQAMEPSPPSPLLPGDVLALLETWMPLSPLEWLPEEPK

These binders were tested against nucleoprotein N of Crimean-Congo hemorrhagic fever virus (assay: AlphaScreen luminescence signal relative to Venus negative control (fold); higher = stronger binding to CCHFV N).
Description: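 AlphaScreen binding of cell-free made, FLAG-GST-tagged human transcription factors and regulators (crude translation products) to biotinylated N protein; signal as fold of the FLAG-GST-Venus control. One pass.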

Binder	AlphaScreen luminescence signal
B1	1.35
B2	2.28
B3	3.67
B4	2.7
B5	1.95
B6	1.49
B7	1.86
B8	2.23
B9	1.53
B10	2
B11	2.74
